According to the supplement of paper PMC7826260:
Some of the results follow. Each Rep nickase domain was tested in vitro on the same pool of single strands (1 h at 37 °C, 3 µM enzyme); the outer parts of the 90-letter strands are left off. The score is log2 (uncut reads / reads without enzyme); uncut sequences lie near 0, cut ones below; no hit call is given. Shares of all reads are compared; where an enzyme cuts many sequences, the uncut ones exceed 0.

Key:
Test in all cases: uncleaved DNA left, log2 of reads against the no-enzyme library (log2 ratio); higher = less cleavage (more negative = more Rep cleavage of the k-mer); sequences stand for … in CTCGTCCG…ACCGGAGA
[1] = system: T1, Rep nickase domain of Muscovy duck circovirus
T1 sequence (residues 1-111 of Rep, tag left off): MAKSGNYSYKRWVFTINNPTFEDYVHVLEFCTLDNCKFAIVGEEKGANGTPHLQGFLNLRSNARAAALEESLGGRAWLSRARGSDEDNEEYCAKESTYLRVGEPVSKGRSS
Description: (§1)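 A pool of 90-nt single-stranded DNAs with seven random bases just before the constant AC of the nick site (name = the seven bases) was cut by 3 µM recombinant His6-SUMO-tagged Rep nickase domain (300 nM DNA, 50 mM HEPES pH 8.0, 50 mM NaCl, 1 mM MnCl2, 1 h, 37 °C, three replicates). Uncut DNA was amplified and sequenced.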

[2] = system: T2, Rep nickase domain of banana bunchy top virus
T2 sequence (residues 1-94 of Rep, tag left off): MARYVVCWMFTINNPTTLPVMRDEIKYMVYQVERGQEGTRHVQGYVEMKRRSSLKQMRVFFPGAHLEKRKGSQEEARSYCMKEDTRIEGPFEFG
Description: as §1

[3] = system: T3, Rep nickase domain of cabbage leaf curl virus
T3 sequence (residues 1-116 of Rep, tag left off): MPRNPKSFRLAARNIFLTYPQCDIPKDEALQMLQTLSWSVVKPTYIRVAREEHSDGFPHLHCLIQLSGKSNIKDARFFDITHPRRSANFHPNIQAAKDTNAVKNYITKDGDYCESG
Description: as §1

[4] = system: T4, Rep nickase domain of chickpea chlorotic dwarf virus
T4 sequence (residues 1-124 of Rep, tag left off): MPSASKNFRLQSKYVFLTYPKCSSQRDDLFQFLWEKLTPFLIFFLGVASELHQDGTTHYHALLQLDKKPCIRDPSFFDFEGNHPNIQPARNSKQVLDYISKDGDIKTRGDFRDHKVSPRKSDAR
Description: as §1

[5] = system: T5, Rep nickase domain of faba bean necrotic yellows virus
T5 sequence (residues 1-98 of Rep, tag left off): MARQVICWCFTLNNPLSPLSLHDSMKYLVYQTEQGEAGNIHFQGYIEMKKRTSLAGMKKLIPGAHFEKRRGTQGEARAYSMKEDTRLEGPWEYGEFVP
Description: as §1

[6] = system: T6, Rep nickase domain of maize striate mosaic virus
T6 sequence (residues 1-117 of Rep, tag left off): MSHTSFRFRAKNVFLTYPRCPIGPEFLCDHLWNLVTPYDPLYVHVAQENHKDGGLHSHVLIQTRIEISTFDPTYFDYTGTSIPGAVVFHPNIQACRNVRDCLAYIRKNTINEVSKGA
Description: as §1

[7] = system: T7, Rep nickase domain of porcine circovirus 2
T7 sequence (residues 2-116 of Rep, tag left off): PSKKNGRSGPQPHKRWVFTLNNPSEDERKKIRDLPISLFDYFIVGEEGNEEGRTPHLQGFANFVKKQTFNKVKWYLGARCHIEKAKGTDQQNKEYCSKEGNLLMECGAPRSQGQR
Description: as §1

[8] = system: T8, Rep nickase domain of tomato golden mosaic virus
T8 sequence (residues 1-124 of Rep, tag left off): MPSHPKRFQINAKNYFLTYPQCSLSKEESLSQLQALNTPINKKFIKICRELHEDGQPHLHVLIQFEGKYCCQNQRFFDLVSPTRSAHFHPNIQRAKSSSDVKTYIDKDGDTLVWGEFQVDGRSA
Description: as §1

[9] = system: T9, Rep nickase domain of tomato yellow leaf curl virus
T9 sequence (residues 1-136 of Rep, tag left off): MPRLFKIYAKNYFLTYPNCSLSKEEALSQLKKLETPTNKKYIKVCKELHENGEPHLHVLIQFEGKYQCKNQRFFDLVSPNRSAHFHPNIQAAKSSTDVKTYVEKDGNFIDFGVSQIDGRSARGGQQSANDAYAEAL
Description: as §1

[10] = system: T10, Rep nickase domain of wheat dwarf virus
T10 sequence (residues 1-137 of Rep, tag left off): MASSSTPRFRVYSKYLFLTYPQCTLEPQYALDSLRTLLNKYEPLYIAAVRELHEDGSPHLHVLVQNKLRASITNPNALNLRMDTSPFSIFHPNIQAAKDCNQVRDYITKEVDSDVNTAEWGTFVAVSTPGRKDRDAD
Description: as §1

Sequence | uncleaved DNA left (log2) [1] | uncleaved DNA left (log2) [2] | uncleaved DNA left (log2) [3] | uncleaved DNA left (log2) [4] | uncleaved DNA left (log2) [5] | uncleaved DNA left (log2) [6] | uncleaved DNA left (log2) [7] | uncleaved DNA left (log2) [8] | uncleaved DNA left (log2) [9] | uncleaved DNA left (log2) [10]
TGGTTTG | 0.0246 | -0.0316 | 0.00845 | 0.945 | 0.0663 | 0.568 | 0.0233 | 0.0719 | 0.00546 | -0.0203
TATAGGG | 0.166 | 0.0104 | 0.183 | 0.321 | 0.0824 | -0.271 | 0.259 | 0.159 | 0.125 | 0.15
AACAGAA | 0.0552 | 0.0744 | -0.0651 | -0.302 | 0.0799 | -0.622 | -0.0188 | 0.0117 | -0.044 | -0.000855
GCGCGGT | -0.032 | -0.00996 | -0.0945 | 0.154 | -0.089 | 0.197 | 0.0432 | 0.0452 | -0.0344 | -0.0483
AGTTCCC | -0.0196 | 0.0262 | 0.198 | 0.428 | -0.0224 | 0.383 | -0.265 | -0.0308 | 0.0168 | 0.043
CTCAGGT | 0.173 | -0.0126 | 0.349 | 1.26 | 0.213 | 1.8 | 0.321 | 0.0801 | -0.145 | 0.0497
ATTACTC | 0.00711 | -0.0403 | -0.0273 | -2.09 | 0.0357 | -0.675 | 0.049 | -0.00871 | 0.00308 | 0.0842
TAACAGG | 0.246 | 0.155 | 0.161 | 0.784 | 0.104 | 0.916 | 0.243 | 0.201 | 0.00577 | 0.277
CCGTACA | 0.0882 | 0.065 | 0.0344 | -1.27 | 0.166 | -0.184 | -0.106 | -0.0295 | 0.0236 | 0.00947
AGGTGGG | 0.152 | 0.116 | -0.414 | -0.458 | 0.0648 | -0.881 | 0.219 | 0.183 | 0.0336 | -0.0476
AGTACCC | -0.0263 | 0.0902 | 0.509 | 1.25 | 0.0371 | 1.72 | -0.102 | -0.0552 | -0.00227 | 0.163
TAGGCTC | 0.0616 | 0.106 | 0.184 | 0.077 | 0.0865 | 0.519 | -0.161 | 0.0838 | 0.0015 | -0.0164
ACGACGT | 0.0171 | -0.065 | -0.0819 | 0.164 | -0.00213 | -0.242 | 0.0274 | 0.117 | -0.0709 | 0.0187
CCGCAGA | -0.0995 | -0.154 | -0.0032 | -0.0516 | -0.192 | -0.416 | -0.0551 | -0.0605 | -0.0339 | -0.115
TCACTCT | -0.0071 | -0.0492 | -0.231 | -2.64 | -0.107 | -0.68 | -0.177 | -0.0402 | -0.0601 | -0.124
